The values that follow come from PMC2727917 (Molecular cell, 2009).

In this test the target is (His)6-UBC9 (UniProt P63279). Put plainly: pull-down.

B1: GST-SUMO-1 (natural protein)
chain: not shown
Take B1: the binding result is on record as “binds”.
